SMILES strings stand for the structures. Hit rate of the full screen: of about 310,000 compounds, about 14,000 (4.5%) showed an effect of 50% or more. The effect is printed as a negative number. Some of the results follow.
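Further: peak tail current of the secondary pulse compared with the same well before compound.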

The target of this test is human ether-à-go-go-related gene (hERG) potassium channel (human, UniProt Q12809). The test can be described thus: primary screen, population patch clamp on CHO cells stably expressing hERG.
human ether-à-go-go-related gene (hERG) potassium channel, sequence (Q12809 whole entry, looked up): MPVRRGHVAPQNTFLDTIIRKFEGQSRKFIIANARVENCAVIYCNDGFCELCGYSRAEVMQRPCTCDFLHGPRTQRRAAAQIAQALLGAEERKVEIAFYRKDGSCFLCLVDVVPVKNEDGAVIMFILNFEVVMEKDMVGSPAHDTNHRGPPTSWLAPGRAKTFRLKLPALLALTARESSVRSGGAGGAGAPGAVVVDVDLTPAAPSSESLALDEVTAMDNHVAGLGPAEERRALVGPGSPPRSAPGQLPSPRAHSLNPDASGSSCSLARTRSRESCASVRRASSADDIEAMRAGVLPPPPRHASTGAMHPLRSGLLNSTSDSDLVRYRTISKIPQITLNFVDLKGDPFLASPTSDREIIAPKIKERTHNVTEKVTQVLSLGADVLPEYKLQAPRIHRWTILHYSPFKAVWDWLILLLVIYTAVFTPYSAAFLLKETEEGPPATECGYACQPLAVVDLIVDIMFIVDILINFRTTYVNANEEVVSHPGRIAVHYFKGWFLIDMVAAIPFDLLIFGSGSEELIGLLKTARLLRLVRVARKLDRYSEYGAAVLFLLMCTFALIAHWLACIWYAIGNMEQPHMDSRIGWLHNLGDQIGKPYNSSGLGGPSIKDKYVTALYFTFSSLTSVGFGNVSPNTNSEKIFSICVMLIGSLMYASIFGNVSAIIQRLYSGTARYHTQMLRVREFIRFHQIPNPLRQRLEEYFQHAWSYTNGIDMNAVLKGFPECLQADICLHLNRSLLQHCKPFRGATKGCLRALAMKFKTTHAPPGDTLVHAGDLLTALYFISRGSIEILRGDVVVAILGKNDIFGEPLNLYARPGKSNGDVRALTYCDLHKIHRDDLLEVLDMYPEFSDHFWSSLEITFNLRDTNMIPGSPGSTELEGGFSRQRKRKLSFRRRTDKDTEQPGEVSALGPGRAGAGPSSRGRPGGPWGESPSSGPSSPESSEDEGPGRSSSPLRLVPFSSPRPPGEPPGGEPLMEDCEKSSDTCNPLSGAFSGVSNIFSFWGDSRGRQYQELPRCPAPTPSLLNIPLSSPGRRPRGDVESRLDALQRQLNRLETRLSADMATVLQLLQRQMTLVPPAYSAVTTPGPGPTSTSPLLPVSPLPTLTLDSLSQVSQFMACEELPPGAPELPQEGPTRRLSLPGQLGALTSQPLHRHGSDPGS
As to `Cc1ccc(S(=O)(=O)NCC(=O)OCC(=O)Nc2cccc(S(=O)(=O)NC3=NCCCCC3)c2)cc1`, the “hERG current change (%, negative = inhibition) at 10uM” value amounted to 20.5%.
The same measure for `COCCNC(=O)c1ccc(C2SCC(=O)N2Cc2ccco2)cc1` (centres unmarked): 11.2%; for `Cc1oc(-c2ccc(Cl)cc2)cc1C(=O)NC1CCN(Cc2ccccc2)CC1`: 1.09%.
`CCNc1nc(NCC)nc(N(CC)C(N)=S)n1`: the “hERG current change (%, negative = inhibition) at 10uM” value was -11.3%.
Consider `Cc1ccc(CN(C(=O)COc2ccc(C)c(C)c2)C2CCS(=O)(=O)C2)o1` (centres unmarked), for which the “hERG current change (%, negative = inhibition) at 10uM” value is listed as -53.6%.
To `CC(=O)c1c(C(C)=O)c(C)n(-c2nc(-c3cccs3)c(C)s2)c1C` belongs 18.7%; to `Nc1nccc(-c2cc(-c3ccc(Cl)cc3Cl)no2)n1`, 12.9%; to `COc1cc(CC(=O)Nc2ccc3nc(C)sc3c2)cc(OC)c1OC`, 2.73%.
On to `Cc1noc(C)c1C(=O)Nc1ccc(Cl)cc1C(F)(F)F`, for which the “hERG current change (%, negative = inhibition) at 10uM” value was -0.387%.
To `O=C(CN1CCOCC1)N/N=C/C(Br)=C\c1ccccc1` belongs 5.63%.
Consider `COc1cc(OC)cc(OCC(O)Cn2cnc3cc(C)c(C)cc32)c1` (centres unmarked), for which the “hERG current change (%, negative = inhibition) at 10uM” value is reported as -12%.
To `CC(=O)N1CCN(C(=S)NC(=O)C23CC4CC(CC(C4)C2)C3)CC1` belongs 40.4%.
To `C=CCNC(=O)C1CCC(CNc2nc(=S)[nH]c3ccccc23)CC1` (centres unmarked) belongs 16.7%; to `COc1cc(C(=O)/C=C/Nc2ccc(NC(C)=O)cc2)cc(OC)c1OC`, -26.3%; to `Cc1ccc(NC(=O)CSCC(=O)Nc2nnc(C3CC3)s2)cc1`, 6.1%.
To `Cc1cc2[nH]ncc2cc1NC(N)=S` belongs 26.1%; to `O=C(CSc1nc(-c2ccccc2)cc(=O)[nH]1)Nc1ccccc1`, 18%.
With `COc1ccccc1CN1CC(C(=O)NCc2cc(F)cc(C(F)(F)F)c2)CCC1=O` (centres unmarked), the “hERG current change (%, negative = inhibition) at 10uM” value was -20.1%.
The same measure for `Nc1nonc1-n1nnc(C(=O)N/N=C/c2ccoc2)c1CSc1ccc(Cl)cc1`: 13.3%.
Consider `CSc1ncccc1C(=O)Nc1nc2ccc(F)cc2s1`, for which the “hERG current change (%, negative = inhibition) at 10uM” value was found to be 42.3%.
The same measure for `Nc1nc(Nc2ccccc2)nc(N2CCCC2)c1[N+](=O)[O-]`: -34.5%; for `COc1cccc(C(=O)Nc2ccc(F)c(F)c2F)c1`: -10%; for `CC(NS(=O)(=O)c1ccccc1)C1CC2CCC1C2` (centres unmarked): -26.6%.
To `N#CC1(NC(=O)COC(=O)C2=COCCO2)CCCCC1` belongs 8.63%.
To `C=CCn1c(-c2ccccc2)nc2nc3ccccc3nc21` belongs -3.49%.
Turning to `c1ccc(-c2ncc(-c3ccn[nH]3)s2)cc1`, the “hERG current change (%, negative = inhibition) at 10uM” value is recorded as 8.93%.
The same measure for `CC1(C)CC(=O)C(C=Nc2cc(C(=O)c3ccccc3)ccc2N)=C(O)C1`: -36%.
To `COCCCn1c(=O)c2ccccc2n(CC(=O)N2CCCc3ccccc32)c1=O` belongs -22.8%; to `O=C1NC(=O)N(CCC2=CCCCC2)C(=O)/C1=C/c1ccc(O)cc1`, -3.45%.
As for `O=C(N/C=N/OCc1ccc(Cl)cc1Cl)NOCc1c(Cl)cccc1Cl`, the “hERG current change (%, negative = inhibition) at 10uM” value turned out to be 0.299%.
As for `CCc1nnc(NC(=O)CCC(=O)NCCc2ccccc2)s1`, the “hERG current change (%, negative = inhibition) at 10uM” value stood at 19%.
The same measure for `CCN(C(=O)COC(=O)c1nn(-c2ccccc2)c(=O)c2ccccc12)C1CCS(=O)(=O)C1` (centres unmarked): -30.2%.
The same measure for `COc1cccc(OC)c1C(=O)Nc1nc(COc2ccccc2)cs1`: 18.4%; for `Cc1cc(-c2ccccc2)nc(N/N=C/c2ccccc2F)n1`: 0.271%; for `CC(C)Cn1cc(F)c(=O)n(CC(C)C)c1=O`: 22.9%.
For `O=C(Cc1ccc([N+](=O)[O-])cc1)N1CCCc2ccccc21`, the “hERG current change (%, negative = inhibition) at 10uM” value is -41.1%.
To `COc1cccc(NC(=O)CSc2nnc(Cn3cnc([N+](=O)[O-])n3)n2C)c1` belongs -6.71%.
To `C(=C\c1ccccc1)/CN1CCN(c2ncnc3c2oc2ccccc23)CC1` belongs -53.7%; to `Cc1cc(NC(=O)NC(C)(C(F)(F)F)C(F)(F)F)no1`, 2.83%.
To `Cc1oc(-c2ccc(Cl)cc2)nc1CN1CCCC(C(=O)NCc2cccnc2)C1` (centres unmarked) belongs -60.8%; to `COc1cc(/C=N/n2cnnc2)ccc1OCCSc1ccc(C)cc1`, -5.6%; to `CN(C(=O)c1ccc2nccnc2c1)C1CCCCC1`, 11.3%.
As to `C=C(C)COc1ccc(-c2nc(N)ncc2-c2ccc(Br)cc2)c(O)c1`, the “hERG current change (%, negative = inhibition) at 10uM” value turned out to be 23.6%.
To `CC1=C(C(=O)OC(C)C)C(c2ccncc2)n2ncnc2N1` (centres unmarked) belongs 0.568%; to `COc1ccccc1/C=C/C(C)=O`, 13.6%.
To `CCOC(=O)c1[nH]c(COC(=O)C2CC(=O)N(Cc3ccccc3)C2)c(C(=O)OCC)c1C` (centres unmarked) belongs -17.2%; to `O=C(O)c1cc2nc(-c3ccccc3)cc(-c3ccccc3)n2n1`, 6.39%.
The same measure for `COc1ccc(/C=N/NC(=O)Cc2cc(OC)c(OC)cc2[N+](=O)[O-])cc1`: 6.28%.
Regarding `O=C(O)c1ccc(NS(=O)(=O)c2ccc(Cl)c(C(=O)Nc3ccccc3)c2)cc1`, the “hERG current change (%, negative = inhibition) at 10uM” value is reported as 8.01%.
The same measure for `Cc1ccc(S(=O)(=O)NNC(=S)Nc2cccc(C)c2C)cc1`: -27.7%; for `CCOC(=O)CN(C(=O)CSc1nnc(-c2ccncc2)n1CCCOC)c1ccccc1`: 9.85%; for `Cc1cc(C)n(-c2cc(C(C)(C)C)nc3c(-c4ccc(Cl)cc4)cnn23)n1`: 2.2%.
To `Cc1[nH]c2ccc(C(=O)NC3CCCC3)cc2c1C` belongs 4.71%; to `CCn1cc(C(=O)NCC2CCCO2)c(=O)c2cc(F)c(N3CCN(C)CC3)cc21` (centres unmarked), 11.6%; to `O=C(COc1ccc(S(=O)(=O)NCc2ccccc2)cc1)N1CCOCC1`, -6.06%.
The same measure for `Cc1ccc(NC(=O)Cc2cn3ccsc3n2)nc1`: 14.3%; for `O=C(NNC(=O)C1CCN(S(=O)(=O)c2ccc(Cl)cc2)CC1)c1ccccc1`: 9.96%; for `O=C(Nc1nc(-c2ccccn2)cs1)c1cccc(-n2cnnn2)c1`: -5.61%.
In the case of `COc1ccc(S(=O)(=O)N2CCOCC2)cc1NC(=O)CSc1nnc2ccccn12`, the “hERG current change (%, negative = inhibition) at 10uM” value is on record as 5.54%.
As for `O=C(O)/C=C/c1ccc(S(=O)(=O)Nc2ccc(C(=O)NCC(=O)O)cc2)cc1`, the “hERG current change (%, negative = inhibition) at 10uM” value was 2.62%.
As for `C=CCc1cccc(CNc2c(C)n(C)n(-c3ccccc3)c2=O)c1O`, the “hERG current change (%, negative = inhibition) at 10uM” value is on record as -0.383%.
To `CCCn1c2ccccc2c2cnn(CC(=O)NC3CCC(C)CC3)c(=O)c21` (centres unmarked) belongs 9.11%.
Consider `Cn1c(SCC(=O)NCc2ccco2)nnc1-c1ccccc1`, for which the “hERG current change (%, negative = inhibition) at 10uM” value was -2.54%.
To `Cc1nc2c3ccccc3nc(NNC(=O)CCC(=O)NCCN3CCN(c4ccccc4)CC3)n2n1` belongs 7.42%; to `CCC(C(=O)Nc1cccc(C(=O)O)c1C)c1ccccc1` (centres unmarked), 7.82%; to `CCC(C)(C)NC(=O)C(c1cccs1)N(C(=O)c1ccn[nH]1)c1cccc(OC)c1` (centres unmarked), -38.5%.
The same measure for `O=C(NCC1CCOCC1)c1ccc2nc(Cc3cccc(Cl)c3)oc2c1`: -12.8%; for `CN(C)S(=O)(=O)c1ccc(NC(=O)c2ccc([N+](=O)[O-])cc2)cc1`: 4.59%.
To `Cc1ccc(NC(=O)CCC(=O)N/N=C/c2coc3ccccc3c2=O)cc1` belongs 0.733%.
In the case of `COc1cc2c(cc1OC)CN(C(=O)c1cc(C3CC3)nn1-c1ccccc1)CC2`, the “hERG current change (%, negative = inhibition) at 10uM” value is given as -56.2%.
The same measure for `CCCn1c(SCC(=O)N2CCCCC2)nnc1-c1ccccn1`: 2.6%.
The same measure for `C/C=C/C(=O)NCCc1ccc(OC)c(OC)c1`: 16.9%; for `CCC(CC)C(=O)NCCN1CCN(C(=O)C(CC)CC)CC1`: 14.4%.
To `COc1ccc(CCC(=O)Nc2ccccc2C(F)(F)F)cc1` belongs 1.9%.
Consider `O=C(Nc1ccc(Br)cc1)c1ccc(-n2cnnn2)cc1`, for which the “hERG current change (%, negative = inhibition) at 10uM” value was 13.2%.
Consider `S=C(NC1CCCCC1)N(CCc1nc2ccccc2[nH]1)C1CCCC1`, for which the “hERG current change (%, negative = inhibition) at 10uM” value came out at 4.83%.
The same measure for `Cc1cc(C)cc(NC(=S)NCc2ccncc2)c1`: -4.58%.
`CCN(CC)CC(=O)Nc1ccc(Cl)cc1C(=O)c1ccccc1`: the “hERG current change (%, negative = inhibition) at 10uM” value is -21.2%.
The same measure for `O=C(O)c1ccc(NS(=O)(=O)c2ccc(Cl)cc2)cc1`: 0.513%; for `CCSC1=C(C#N)C(c2ccccc2Cl)CC(=O)N1` (centres unmarked): 3.95%; for `CN(Cc1nccn1C)C(=O)CC1C(=O)NCCN1Cc1ccccc1C(F)(F)F` (centres unmarked): 17.7%.
For the compound `CC(C)(C)c1ccccc1NC(=O)c1ccc(-n2cncn2)c([N+](=O)[O-])c1`, the “hERG current change (%, negative = inhibition) at 10uM” value was -2.44%.
`C(=C\c1ccccc1)/C=N/N1CCN(c2ccccn2)CC1`: the “hERG current change (%, negative = inhibition) at 10uM” value is reported as -1.04%.
To `O=C(CSc1ccc2nnc(-c3cccnc3)n2n1)NCc1ccc2c(c1)OCO2` belongs -53.3%; to `CC(C(=O)NCCc1ccccc1)N1c2cccc3cccc(c23)S1(=O)=O` (centres unmarked), -21.2%.
The same measure for `Cc1ccc(N(CCCCN2C(=O)c3ccccc3C2=O)C(=O)c2ccc(Cl)s2)cc1`: 2.79%; for `COc1cccc(C(=O)NCCCN2CCN(CCCNC(=O)c3cccc(OC)c3)CC2)c1`: -85.4%.
On to `CCCCc1ccc(NC(=S)N2CCN(C(=O)c3ccco3)CC2)cc1`, for which the “hERG current change (%, negative = inhibition) at 10uM” value is listed as -75.3%.
For `COc1ccc(CN=C2NC(=O)CC(C(=O)Nc3ccc(Cl)cc3)S2)cc1` (centres unmarked), the “hERG current change (%, negative = inhibition) at 10uM” value is -7.8%.

The values above are taken from article PMC4336329 (PLoS ONE, 2015).
